Source: paper PMC4336329 (PLoS ONE, 2015)
The campaign covered roughly 310,000 compounds. About 2,200 (0.71%) showed an effect of 50% or more. The effect is printed as a negative number. The list shows a part of the results.

These compounds were tested against human ether-à-go-go-related gene (hERG) potassium channel (human, UniProt Q12809) (assay: primary screen, population patch clamp on CHO cells stably expressing hERG).
Sequence of human ether-à-go-go-related gene (hERG) potassium channel (Q12809 whole entry, looked up): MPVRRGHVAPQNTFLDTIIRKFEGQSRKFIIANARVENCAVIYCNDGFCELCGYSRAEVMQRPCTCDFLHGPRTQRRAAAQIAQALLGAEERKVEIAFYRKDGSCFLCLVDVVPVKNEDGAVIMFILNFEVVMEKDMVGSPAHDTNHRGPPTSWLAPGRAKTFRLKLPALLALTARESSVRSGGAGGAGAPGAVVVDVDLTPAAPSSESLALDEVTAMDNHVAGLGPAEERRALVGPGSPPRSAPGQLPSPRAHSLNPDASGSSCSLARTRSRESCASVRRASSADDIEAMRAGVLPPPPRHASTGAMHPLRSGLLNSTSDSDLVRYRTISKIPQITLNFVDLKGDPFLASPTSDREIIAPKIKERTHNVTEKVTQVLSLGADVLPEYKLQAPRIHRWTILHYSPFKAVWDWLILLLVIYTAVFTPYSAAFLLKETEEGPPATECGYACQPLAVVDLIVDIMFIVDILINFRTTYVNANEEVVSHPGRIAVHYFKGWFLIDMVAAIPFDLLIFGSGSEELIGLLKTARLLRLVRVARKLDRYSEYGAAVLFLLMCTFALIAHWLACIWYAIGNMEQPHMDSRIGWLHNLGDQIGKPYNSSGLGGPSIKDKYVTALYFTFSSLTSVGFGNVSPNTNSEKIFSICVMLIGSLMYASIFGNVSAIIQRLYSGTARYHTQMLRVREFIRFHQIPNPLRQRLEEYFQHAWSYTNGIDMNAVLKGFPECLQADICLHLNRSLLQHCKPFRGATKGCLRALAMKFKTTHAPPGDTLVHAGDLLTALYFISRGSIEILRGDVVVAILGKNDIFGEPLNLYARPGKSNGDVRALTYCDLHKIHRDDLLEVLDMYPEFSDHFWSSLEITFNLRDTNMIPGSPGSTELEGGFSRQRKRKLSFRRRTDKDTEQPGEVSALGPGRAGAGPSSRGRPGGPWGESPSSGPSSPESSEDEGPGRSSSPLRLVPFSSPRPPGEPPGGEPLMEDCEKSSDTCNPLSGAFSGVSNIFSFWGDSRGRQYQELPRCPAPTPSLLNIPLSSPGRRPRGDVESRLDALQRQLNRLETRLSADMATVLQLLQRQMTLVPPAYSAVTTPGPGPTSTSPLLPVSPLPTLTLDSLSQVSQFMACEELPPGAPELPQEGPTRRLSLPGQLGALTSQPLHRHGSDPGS

Compound | hERG current change (%, negative = inhibition) at 1uM [%]
COc1cccc(NC(=O)CN2CCN(CC(=O)Nc3ccccc3Cl)CC2)c1 | -21.1
CC1=NOC(=O)/C1=C/c1ccc(O)c(Br)c1 | 22.1
COc1ccc(N=c2oc3cc(O)ccc3cc2C(=O)NCC2CCCO2)cc1 (centres unmarked) | 9.02
COc1cc(C(=O)NC2CCN(Cc3nnnn3Cc3ccc(F)cc3)CC2)cc(OC)c1OC | 3.89
CC1=C(C(=O)Nc2ccc(C(=O)N3CCN(c4ccccc4F)CC3)cc2)SCCO1 | 13.2
CCCCCN(C(=O)COC(=O)COc1c(C)cc(C)cc1C)c1c(N)n(CCCC)c(=O)[nH]c1=O | 7.56
CC(C)C(=O)Nc1ccc(NC(=S)NC(=O)c2cc3ccccc3o2)cc1 | 12.3
COc1cc(CN2CCN(Cc3ccc(C)cc3)C(CCO)C2)cc(OC)c1O (centres unmarked) | -8.42
COc1ccccc1/C=N\N=C(\N)c1ccccn1 | 3.17
CCOc1ccc2c(c1)S/C(=C\c1cccs1)C(=O)N2 | 10
Cc1ccc[n+](C(C)C(=O)Nc2ccc(C)c(C)c2)c1.[Br-] (centres unmarked) | 11.9
COc1ccc(C(=O)N2CCN(Cc3ccc4c(c3)OCO4)CC2)cc1[N+](=O)[O-] | -6.08
O=C(Cn1nc(Cl)nc1Cl)c1cc2ccccc2oc1=O | -11.8
CCOc1cc(NC(=S)NCC2CCCO2)c(OCC)cc1NC(=O)c1ccccc1 (centres unmarked) | -5.53
COc1ccc(C(c2nnnn2CC2CCCO2)N2CCN(c3cccc(C)c3C)CC2)cc1.Cl (centres unmarked) | 7.59
Cc1ccccc1CN1CCNC(=O)C1CC(=O)N(C)CCC1CCOCC1 (centres unmarked) | 19.3
COc1ccc(CNc2c(C(=O)O)cnc3c2cnn3C)cc1 | 23
Cc1ccccc1-c1nc(CN2CCC(C(=O)NCc3ccco3)CC2)c(C)o1 | -34.7
Cc1c(C(=O)N/N=C/c2ccc(N(C)C)cc2)[nH]c2ccc(Cl)cc12 | 9.53
O=C(c1ccc2c(c1)OCO2)N(Cc1ccco1)C1(C(=O)NC2CCCCC2)CCCCC1 | 2.89
O=C(NCc1ccc2c(c1)OCO2)C1CC(=O)N(c2ccc(Cl)cc2)C1 (centres unmarked) | -4.49
CCOC(=O)c1ccc(NC2c3ncccc3C(=O)N2Cc2ccc(F)cc2)cc1 (centres unmarked) | 11.7

Compound | hERG current change (%, negative = inhibition) at 1uM [%]
c1nc(N2CCC3(CC2)OCCO3)c2[nH]cnc2n1 | 22.6
COc1ccc(N2CCN(S(=O)(=O)CCNC(=O)COc3cccc(OC)c3)CC2)cc1 | 17.4
O=C(OCCN1C(=O)c2cccc3c(N4CCOCC4)ccc(c23)C1=O)c1cccc(Cl)c1 | 9.05
O=C(NCCc1ccc(F)cc1)c1ccc([N+](=O)[O-])cc1 | -1.54
C#CCOCCOCCOCCNc1nc(N2CCN(C(=O)Cn3cc(CCC[NH+]=C(N)N)nn3)CC2)nc(N2CCN(C(=O)[C@H](C)n3cc(CCC[NH+]=C(N)N)nn3)CC2)n1.[Cl-] | 11.6
N#Cc1ccc(Oc2ccc(NC(=O)C3CC=CCC3C(=O)O)cc2)cc1 (centres unmarked) | 13.4
Cc1ccc(CNC(=O)C2CC2c2ccccc2)cc1 (centres unmarked) | 14.3
COC(=O)c1c(-c2ccc(Br)cc2)noc1N | 17.4
O=C(Nc1ccc(Cl)c(Cl)c1)Oc1ccc(NC(=O)c2ccco2)cc1 | 19.8
COC(=O)CCC(=O)Nc1sc2c(c1C#N)CCCC2 | 8.13
O=C(c1ccc(=O)oc1)N1CCN(c2ccc(F)cc2)CC1 | -0.973
CC1CN(C(=O)c2cc3cc(Br)ccc3[nH]2)CC(C)O1 (centres unmarked) | 7.81
N#CCC(=O)N/N=C1\CCCCC1C1CCCCC1 (centres unmarked) | 9.25
Cc1ccc(CC2CC(=O)N(Cc3ccco3)C2=O)cc1 (centres unmarked) | 5.21
O=c1c2ccccc2oc2cc(NCCCn3ccnc3)ccc12 | 0.0608
Cc1cc(C)c(S(=O)(=O)NCCC2CCCN2C)c(C)c1 (centres unmarked) | 16.4
COc1ccc(N2CCN(C(=O)c3cc(=O)c4cc(C)cc(C)c4o3)CC2)cc1 | -2.24
COc1ccc(OCC2CCNCC2)cc1.Cl | 16.7
C=CCOC(=O)CCP(=O)(CCC(=O)OCC=C)c1ccccc1 | -1.19
O=[N+]([O-])c1cccc(CN2CCN(c3cccc4[nH]ccc34)CC2)c1 | 13.4
O=C(Cc1cccc(NC(=O)C2CCCN(C(=O)C3CC3)C2)c1)Nc1cccc(C(=O)N2CCCC2)c1 (centres unmarked) | 15.7
NS(=O)(=O)c1cc(C(=O)OCC(=O)NC2CC2)ccc1Cl | -4.99

Compound | hERG current change (%, negative = inhibition) at 1uM [%]
CCCCNC(=O)CCC(=O)NNc1nc2ccccc2c2nc(C)nn12 | 26.5
Nc1c(-c2cccc(Cl)c2)cnc2c(-c3ccccc3)cnn12 | 10.7
CC12CCC(C(=O)N(NC(=O)c3cccnc3)C1=O)C2(C)C (centres unmarked) | 16.3
COc1ccc(C(=O)Nc2ccnn2C2CCN(CC3CC=CCC3)CC2)cc1 (centres unmarked) | -10.4
Cc1ccc(/C(O)=C2/C(=O)C(=O)N(CCN3CCOCC3)C2c2cccs2)cc1 (centres unmarked) | 14.4
CN(C(=O)COC(=O)/C=C/c1cccs1)c1c(N)n(Cc2ccccc2)c(=O)[nH]c1=O | 11.3
Cc1cc(/C=N/NC(=O)c2cccs2)c(C)n1-c1ccccc1 | 19.4
CCN(CC)S(=O)(=O)c1ccc(N=N/C(C(C)=O)=C(/C)O)cc1 | 12
O=C(CN1C(=O)NC2(CCCC2)C1=O)N1CCN(Cc2ccccc2)CC1 | 12.5
O=C(NCC1CCCO1)c1cc(-c2ccc(Cl)cc2Cl)on1 (centres unmarked) | 12.3
CCCOc1cccc(-c2nc3ccccc3c(=O)o2)c1 | 15
O=C(CCCn1cc([N+](=O)[O-])cn1)Nc1cccnc1 | 4.27
c1ccc(-c2nc3ccccn3c2-c2ccccc2)cc1 | 12.1
CCOC(=O)c1ccc(NC(=O)c2nc[nH]c2C(=O)N2CCc3ccccc3C2)cc1 | 10.3
CCC1C(=O)NCCN1C(=O)c1cccc(OC2CCN(S(=O)(=O)N(C)C)CC2)c1 (centres unmarked) | 12.8
O=c1cnn(Cc2ccc(Cl)c(Cl)c2)c2ccccc12 | 7.92
Cc1cc(F)ccc1S(=O)(=O)Nc1nc2ccccc2nc1Cl | 11.8
COc1cccc(C(=O)N(C)CC2CCN(CCc3cccc(C(F)(F)F)c3)CC2)c1 | -70.3
CCOC(=O)c1c(C)[nH]c(NC(=O)N2CCOCC2)c1C | 16.1
CCOC(=O)C1CCN(Cc2c(C(=O)N3CCOCC3)nc3c(C)cccn23)CC1 | 6.59
CC(C)(C)c1ccc(-c2n[nH]c(=S)n2CC2CCCO2)cc1 (centres unmarked) | 8.12
CCC(C)c1ccccc1NC(=O)COC(=O)c1ccc(N2CCCC2)c([N+](=O)[O-])c1 (centres unmarked) | 11.1

Compound | hERG current change (%, negative = inhibition) at 1uM [%]
Cc1ccc(S(=O)(=O)N2CCOCC2)cc1NC(=O)c1cccc(S(=O)(=O)N2CCCC2)c1 | 14.5
O=C(NC1CCCC1)C(c1ccncc1)N(Cc1ccccc1)C(=O)Cc1cccs1 (centres unmarked) | 0.145
Cc1nn(-c2ccccc2)c(Cl)c1C(=O)OCC(=O)NCCc1ccccc1 | 2.73
CC(C)CN(C(=O)COc1ccc(Br)cc1C=O)C1CCS(=O)(=O)C1 (centres unmarked) | 5.44
COc1ccc(OC)c(NC(=O)C2CCN(S(=O)(=O)c3ccc4c(c3)OCCO4)CC2)c1 | 4.48
Cc1cccc(NC(=O)CCCN2C(=O)c3cccc4cccc(c34)C2=O)c1 | 5.28
COCCn1nnnc1CN(CCc1ccccc1)Cc1cc2cc(OC)ccc2[nH]c1=O | -17.6
CCOC(=O)Cc1nnc(NC(=O)C(CC)Sc2nncn2C)s1 (centres unmarked) | 11.5
CCN(CC(=O)Nc1ccc2c(c1)OCCO2)C(=O)CC(NC(C)=O)c1ccccc1 (centres unmarked) | 16.6
CC1=CC(C)C2COC(c3ccc[n+](C)c3)C1C2C.[I-] (centres unmarked) | 13.2
O=C(c1cccs1)[C@@H]1[C@@H]2C(=O)N(Cc3ccc4c(c3)OCO4)C(=O)[C@@H]2C2c3ccccc3C=CN21 (some centres unmarked) | -12
O=c1oc2ccccc2c2[nH]ccc12 | 14.5
COCCCNC(=O)CN(c1cc(Cl)cc(Cl)c1)S(C)(=O)=O | 8.12
COc1ccccc1NC(=O)c1cc2ccccc2o/c1=N\O | 3.06
CS(=O)(=O)c1ccc(Cl)c(NC(=O)CCNC(=O)c2ccco2)c1 | -6.6
COc1ccc(C(=O)N(C)C2CCN(C)CC2)cc1S(=O)(=O)Nc1cc(Cl)ccc1Cl | 3.04
CC/C(=N\NC(=O)Cc1ccc(Br)cc1)c1cccs1 | 12.5
CC1=CC(C)C(COC(N)=O)(COC(N)=O)C(C)C1 (centres unmarked) | -8.66
O=C(N/N=C/c1c(Cl)cccc1Cl)c1ccccc1F | 7.76
O=C(O)c1cc(-c2cccc([N+](=O)[O-])c2)n[nH]1 | 7.75
